From paper PMC4336329 (PLoS ONE, 2015)
The whole screen tested about 310,000 compounds, of which about 2,200 (0.71%) showed an effect of 50% or more. The effect is printed as a negative number. The list shows a part of the results.

Target: human ether-à-go-go-related gene (hERG) potassium channel (human, UniProt Q12809)
Test: primary screen, population patch clamp on CHO cells stably expressing hERG

Chain of human ether-à-go-go-related gene (hERG) potassium channel (Q12809 whole entry, looked up): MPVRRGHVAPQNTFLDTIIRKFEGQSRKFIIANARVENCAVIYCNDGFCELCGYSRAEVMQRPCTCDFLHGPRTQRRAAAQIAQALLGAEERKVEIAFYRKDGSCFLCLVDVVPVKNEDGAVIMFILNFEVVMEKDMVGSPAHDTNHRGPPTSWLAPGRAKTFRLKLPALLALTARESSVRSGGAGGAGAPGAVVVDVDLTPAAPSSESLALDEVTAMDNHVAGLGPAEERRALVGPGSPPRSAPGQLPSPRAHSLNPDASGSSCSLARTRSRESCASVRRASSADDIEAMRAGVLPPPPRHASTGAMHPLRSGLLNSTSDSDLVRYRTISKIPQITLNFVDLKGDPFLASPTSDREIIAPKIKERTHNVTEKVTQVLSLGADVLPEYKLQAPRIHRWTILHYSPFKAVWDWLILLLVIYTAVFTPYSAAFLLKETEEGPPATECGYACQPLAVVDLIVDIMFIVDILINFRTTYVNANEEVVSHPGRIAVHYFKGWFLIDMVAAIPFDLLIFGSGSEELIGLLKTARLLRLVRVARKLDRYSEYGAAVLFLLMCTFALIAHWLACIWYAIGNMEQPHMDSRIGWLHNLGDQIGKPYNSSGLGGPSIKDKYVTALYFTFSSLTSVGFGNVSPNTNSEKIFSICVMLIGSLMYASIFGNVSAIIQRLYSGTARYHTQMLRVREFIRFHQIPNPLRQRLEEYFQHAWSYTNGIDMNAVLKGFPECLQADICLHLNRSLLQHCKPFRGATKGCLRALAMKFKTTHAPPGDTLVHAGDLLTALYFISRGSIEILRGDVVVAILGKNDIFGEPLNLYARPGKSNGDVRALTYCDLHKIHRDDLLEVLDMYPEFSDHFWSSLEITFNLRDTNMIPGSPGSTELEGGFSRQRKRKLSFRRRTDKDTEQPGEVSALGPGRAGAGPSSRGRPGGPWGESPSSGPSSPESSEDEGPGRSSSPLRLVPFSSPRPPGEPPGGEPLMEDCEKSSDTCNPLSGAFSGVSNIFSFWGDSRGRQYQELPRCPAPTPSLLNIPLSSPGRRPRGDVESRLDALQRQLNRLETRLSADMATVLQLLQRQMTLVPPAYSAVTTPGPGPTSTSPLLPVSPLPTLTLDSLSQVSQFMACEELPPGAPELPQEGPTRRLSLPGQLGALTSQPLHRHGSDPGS

SMILES	hERG current change (%, negative = inhibition) at 1uM [%]
O=C(CSc1nnc(CNC(=O)c2ccc(F)cc2)o1)NCC1CCCO1 (centres unmarked)	9.07
COc1ccccc1-c1cc(C(=O)NCc2cccs2)no1	9.7
CCN1CCN(c2ccc(NC(=O)c3cccc4ncccc34)cc2)CC1	10.3
CCOc1cc(C(=O)NCCCNC(=O)c2cc(OCC)c(OCC)c(OCC)c2)cc(OCC)c1OCC	22.3
COc1ccccc1C(=O)Nc1nnc(C)s1	2.97
COCCCN1CN=C(Nc2nc3ccccc3o2)NC1	5.68
Cc1ccc2[nH]c3c(c2c1)CN(C(=O)CN(C)CC1OCCO1)CC3	15.1
Cc1cccc(NS(=O)(=O)c2c(C)noc2C)c1	11.1
CN(CC(=O)Nc1cccc(F)c1)C(=O)c1cn(-c2ccccc2)nc1-c1cccs1	14.1
COc1ccc(OC)c(S(=O)(=O)N2Cc3ccccc3CC2C(=O)Nc2nccs2)c1 (centres unmarked)	15.5
COc1ccccc1N1CCN(C(=O)CCNS(=O)(=O)c2ccc(Br)s2)CC1	-2.71
O=C(Nc1cccn(Cc2c(Cl)cccc2Cl)c1=O)c1ccc(Cl)cc1	6.52
C[C@H]1Oc2ccccc2C(=O)C1C(=O)c1ccccc1 (some centres unmarked)	1.98
C/C(=N\Nc1ccc([N+](=O)[O-])cc1[N+](=O)[O-])c1cccnc1	0.177
COc1cc2c(cc1OC)CN(Cc1nc3ccsc3c(=O)[nH]1)CC2	9.04
CCCOc1ccccc1C1C(C(=O)OC)=CN(C(C)C)C=C1C(=O)OC	-18.9
CCOC(=O)C1=C(N)Oc2ccc3ccccc3c2C1c1cccnc1 (centres unmarked)	4.13
CN(C)CCOCCOc1ccc(Cl)c2ccccc12.O=C(O)C(=O)O	0.948
COP(=O)(OC)c1nc(-c2ccc(C)cc2)oc1N1CCCCC1	4.18
O=C(CN1CCN(C(=O)c2ccco2)CC1)Nc1ccc(Br)cc1	10.5
CC1Cc2ccccc2N1C(=O)CSc1nnc(-c2ccccc2)c(-c2ccccc2)n1 (centres unmarked)	3.77
CCOC(=O)c1cnn(-c2cc(C)nc3c(-c4ccccc4)c(C)nn23)c1N	9.87

SMILES	hERG current change (%, negative = inhibition) at 1uM [%]
CCCN1Cc2cccc(C(=O)NC(CC(=O)OCC)c3ccc(OC(C)C)cc3)c2C1=O (centres unmarked)	-6.43
COc1ccc(OCC(=O)NNC(=O)C(=O)Nc2cc(OC)ccc2OC)cc1	13.5
O=C(CSC1CC(=O)N(CCc2ccccc2)C1=O)Nc1cccc(Cl)c1 (centres unmarked)	8.29
Cn1c(=O)c2c(nc(Br)n2C/C=N/NC(N)=S)n(C)c1=O	9.12
Cc1ccc2sc3ccc(NC(=O)c4ccccc4Cl)cc3c(=O)c2c1	12.1
COc1ccc(CCNC(=O)CCC(=O)N2CCN(S(=O)(=O)c3ccccc3)CC2)cc1OC	13.2
CC1CCN(C(NC(=O)c2ccco2)C(=O)c2ccccc2)CC1 (centres unmarked)	-0.99
CC(C)CN(C(=O)c1ccc(N2CCCC2=O)cc1)C1CCS(=O)(=O)C1 (centres unmarked)	11.4
CCCCNc1c(-c2ccc(OC)c(SC3CCCCC3)c2)nc2cnccn12.O=C(O)C(F)(F)F	9.85
Cc1cc(N2CCCCC2)nc(SCC(=O)c2ccccc2)n1	12.5
NC(=O)c1ccccc1NC(=O)CN1CCOCC1	11.1
O=C(COc1ccc2oc(-c3ccccc3)cc(=O)c2c1)NCc1ccco1	17.8
O=C1CC2(CCCC2)C(=O)N1c1ccc(S(=O)(=O)NCC2CC2)cc1Cl	8.36
Cc1cccc(N(C(=O)Cn2nnc3ccccc32)C(C(=O)NCc2ccco2)c2ccncc2)c1C (centres unmarked)	3.44
O=C(Nc1ccc(Cl)c(S(=O)(=O)N2CCOCC2)c1)c1cc(-c2ccccn2)nc2ccccc12	2.12
O=C(CCS(=O)(=O)c1cccc2nonc12)N1CCOCC1	14.9
Cc1cccc(C)c1NC(=O)CN(C)C(=O)c1ccc(COc2ccccc2)cc1	1.39
Nc1nc(COc2ccc3ccccc3c2)cs1	-3.78
Cc1noc(NS(=O)(=O)c2ccc(N/C=C/C(=O)c3cccnc3)cc2)c1C	8.79
CCOC(=O)c1c(C(C)(C)C)oc2ccc(O)cc12	8.44
COC(=O)c1cc(C(=O)OC)n(Cc2ccc(Br)cc2)n1	-5.63
Cl.FC(F)(F)c1ccc(CN2CCNCC2)cc1	4.21
